From PubChem BioAssay AID1345082 (National Center for Advancing Translational Sciences (NCATS), 2018)
Values joined by “and” are separate entries in the source; they are usually repeats but may differ in a detail not shown here. Equal entries are not always repeated. The whole screen tested about 94,000 compounds, of which about 4,000 (4.3%) were called active. Inconclusive results, whose numbers are uncertain, are shown with a selection of clear calls. Calls follow the shape of the dose curve; as a rule, active = well fitted inhibition curve with a large enough effect; inconclusive = small, poorly fitted or top-dose-only effect; inactive = no such curve, though single readings can be large or run the other way. Where the call is inconclusive, the potency comes from a doubtful curve fit.

Experiment: Cytotoxic Profiling in NIH 3T3 Cell Line of Diverse Libraries Using Quantitative High-Throughput Screening; also: nearly all actives have a fitted effect of over 55% in size
Conditions: NIH 3T3 viability, CellTiter-Glo ATP luminescence, 48-72 h; activity change, negative = cytotoxicity: at 96.7 µM (top of the series) unless noted; series mostly up to 96.7 µM
Method in brief: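 ATP-dependent luminescence (CellTiter-Glo) served as the viability signal for NIH 3T3 cells treated with compound for 48 or 72 hr at 37 °C.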
% is scaled to controls: 0 for no effect and ±100 for the full control effect; potency is read from the fitted curve at half-maximal effect; tags tell the direction and shape of the fitted curve.

Q: Which Potency does the source give for COc1ccc(CN2CCc3ncc(C(=O)NCc4ccc5c(c4)OCO5)n3CC2)cn1 here?
A: inconclusive: 89.1 µM [inhibitor, partial curve, poor fit]

Q: Which “activity change, negative = cytotoxicity” value does the source give for CN(Cc1cccnc1)C(=O)CCC1CCN(C(=O)c2ccccc2)CC1 here?
A: inactive: -14.1%

Q: With O=C(c1ccc(C(F)(F)F)cc1)N1CCCN(c2ccnc3ccnn23)CC1 as the molecule, how does the Potency read?
A: inconclusive: 39.8 µM [inhibitor, partial curve]

Q: Which “activity change, negative = cytotoxicity” value does the source give for NC1CCCCN(C(=O)CCn2cc(Cl)cn2)C1 (configuration not stated) here?
A: inactive: 1.14%

Q: For Cc1cccc(NC(=O)c2cc3n(n2)CC(c2ccc(Cl)cc2)OC3)c1 (configuration not stated), which Potency is on record?
A: inconclusive: 56.2 µM [inhibitor, single point]

Q: Which Potency does the source give for Cc1cccc(NC(=O)c2ccc3c(c2)N(C)C2CCCCCN2C3=O)c1 (configuration not stated) here?
A: inconclusive: 70.8 µM [inhibitor, single point]

Q: With c1ccc(Oc2ccc(Nc3cnc4ccc(N5CCOCC5)nn34)cc2)cc1 as the molecule, how does the Potency read?
A: active: 44.7 µM

Q: With O=C(c1cc(F)cc(F)c1)N1CCC(N2CC3CC(C2)[C@H]2CCCC(=O)N2C3)CC1 (some centres not stated) as the molecule, how does the “outcome” value read?
A: inactive

Q: Which Potency does the source give for O=S(=O)(c1cccnc1)N1CCC(N(Cc2cccnc2)C2CCOCC2)CC1 here?
A: inconclusive: 50.1 µM [inhibitor, partial curve, poor fit]

Q: Which Potency does the source give for CC1(c2ccccc2)N(Cc2ccccc2F)C(=O)OC12CCN(Cc1cccnc1)CC2 (configuration not stated) here?
A: inconclusive: 50.1 µM [inhibitor, single point]

Q: Which Potency does the source give for Cc1cccc2c1nc1n2[C@@H](CNCc2ccc(C#N)cc2)COC1 here?
A: inconclusive: 39.8 µM [inhibitor, partial curve, poor fit]

Q: For COCc1cc(C[C@@H]2CC[C@H](O)[C@@H](CN(C(=O)Nc3ccccc3)C(=O)Nc3ccccc3)O2)no1, which Potency is on record?
A: inconclusive: 56.2 µM [inhibitor, partial curve, poor fit]

Q: Which Potency does the source give for Cc1nnc(-c2cc(-c3ccc(N4CCOCC4)cc3)ccn2)n1Cc1ccccc1 here?
A: inconclusive: 39.8 µM [inhibitor, partial curve, poor fit]

Q: Which Potency does the source give for COCCN1CCCCCC(O)c2cc(C(=O)N3CCN(c4ccc(OC)cc4)CC3)ccc21 (configuration not stated) here?
A: inconclusive: 39.8 µM [inhibitor, partial curve]

Q: With O=C(CCC[C@@H]1[C@H]2CCCN3CCC[C@@H](CN1C(=O)c1ccccc1F)[C@@H]23)N1CCOCC1 as the molecule, how does the “outcome” value read?
A: inactive

Q: For Cc1noc(-c2ccc(OC3CN(C(=O)C(C)c4ccccc4)C3)cc2)n1 (configuration not stated), which Potency is on record?
A: inconclusive: 35.5 µM [inhibitor, partial curve]

Q: With COc1ccc(CCC(=O)N2CCOc3ccc(N4CCCC4)cc3C2)cc1 as the molecule, how does the Potency read?
A: inconclusive: 50.1 µM [inhibitor, partial curve, poor fit]

Q: For COCCCNC(=O)CCN(CCCOC)C(=O)c1cc(C)oc1C, which “activity change, negative = cytotoxicity” value is on record?
A: inactive: 2.09%

Q: Which Potency does the source give for Fc1ccc(-c2nnc3ccc(N4CCN(Cc5ccccc5)CC4)nn23)nc1 here?
A: inconclusive: 5.62 µM [inhibitor, full curve, poor fit]

Q: Which “activity change, negative = cytotoxicity” value does the source give for CCOC(=O)CCNC(=O)N1CCC2(CC1)C(=O)N(C(C)C)C2c1ccccc1 (configuration not stated) here?
A: inactive: -33.5%

Q: For COc1ccccc1N1CCN(C(=O)CC[C@]23CC[C@](C)(O)C[C@H]2C(C)(C)C[C@@H]3NC(=O)c2ccc(C(F)(F)F)cc2)CC1, which Potency is on record?
A: inconclusive: 35.5 µM [inhibitor, partial curve, poor fit]

Q: With COC[C@H]1CCCN1[C@@H]1[C@H](O)[C@H](CO)O[C@@H]1CN(Cc1ccc(F)cc1)Cc1ccc(F)cc1 as the molecule, how does the Potency read?
A: inconclusive: 79.4 µM [inhibitor, partial curve, poor fit]

Q: Which Potency does the source give for CCCN(CC1CC1)C(=O)C1CCC(=O)N(Cc2ccc(Cl)cc2)C1 (configuration not stated) here?
A: inconclusive: 56.2 µM [inhibitor, partial curve, poor fit]

Q: Which “activity change, negative = cytotoxicity” value does the source give for CCCC(=O)NC1CCCN(c2ccnc3ccnn23)C1 (configuration not stated) here?
A: inactive: -8.42% [at 138 µM]

Q: Which Potency does the source give for CC(=O)c1ccc(NC(=O)Cn2c(-c3ccc(Cl)cc3)nc(C)cc2=O)cc1 here?
A: inconclusive: 39.8 µM [inhibitor, partial curve]

Q: Which Potency does the source give for CC(C)c1ccc(N2C(=O)N[C@@H]3CCN(C(=O)c4ccc(C(C)(C)C)cc4)[C@@H]3C2=O)cc1 here?
A: active: 70.8 µM

Q: With Cc1nn(-c2ccccc2)c2c1C(C)N(C1CCCN(C(=O)Nc3ccc(Cl)cc3)C1)C2=O (configuration not stated) as the molecule, how does the Potency read?
A: inconclusive: 11.2 µM [inhibitor, full curve]

Q: For COc1ccc(Nc2ccnc(N3CCCC(C(=O)NCCc4ccc(F)cc4)C3)n2)cc1 (configuration not stated), which Potency is on record?
A: active: 25.1 µM

Q: With COc1ccc(CNC(=O)c2cnc3c(c2)N(C(=O)Cc2ccc(C(C)C)cc2)CCC3)cc1OC as the molecule, how does the Potency read?
A: inconclusive: 50.1 µM [inhibitor, partial curve, poor fit]

Q: With O=c1cc(-c2cccnc2)oc2c(-c3ccccc3F)nccc12 as the molecule, how does the Potency read?
A: active: 20 µM

Q: Which Potency does the source give for COc1ccc(CCC(=O)Nc2ccc3c(N4CCOCC4)ncnc3c2)cc1 here?
A: inconclusive: 50.1 µM [inhibitor, partial curve, poor fit]

Q: Which Potency does the source give for O=C([C@@H]1C[C@H](F)CN1S(=O)(=O)Cc1ccccc1Cl)N1CCc2ccccc2C1 here?
A: inconclusive: 35.5 µM [inhibitor, partial curve, poor fit]

Q: Which “activity change, negative = cytotoxicity” value does the source give for Cc1cc(C(=O)NCC2(COc3cccnc3)C[C@@H](O)[C@@H](O)C2)n(C)n1 (some centres not stated) here?
A: inactive: -25.3% [at 174 µM]

Q: With O=C(C[C@H]1NC(=O)c2ccccc2NC1=O)Nc1nc(-c2cccnc2)cs1 as the molecule, how does the Potency read?
A: inconclusive: 31.6 µM [inhibitor, single point]

Q: Which Potency does the source give for O=C1CO[C@H]2CCN(Cc3cccs3)CC[C@@H]2N1c1ccccc1 here?
A: inconclusive: 44.7 µM [inhibitor, partial curve, poor fit]

Q: With O=C(NCc1cccc(C(F)(F)F)c1)c1ccc2oc(-c3ccncc3)nc2c1 as the molecule, how does the “activity change, negative = cytotoxicity” value read?
A: inactive: -15.9%

Q: For COc1ccc(CC(=O)NC2CCN(c3nccc(Nc4ccccc4F)n3)CC2)cc1, which Potency is on record?
A: active: 44.7 µM

Q: With O=C1N(CCc2ccccc2)c2ccccc2C12CCN([S+](=O)([O-])c1cccs1)C2 (configuration not stated) as the molecule, how does the Potency read?
A: inconclusive: 35.5 µM [inhibitor, full curve, poor fit] and inconclusive: 50.1 µM [inhibitor, partial curve, poor fit]

Q: Which “activity change, negative = cytotoxicity” value does the source give for O=C(Cn1nc2c(cc1=O)CCCCC2)N1CCSCC1 here?
A: inactive: -10%

Q: For COc1cccc(N2C(=O)NC(=NC3CCCC3)C23CCCN(C(=O)c2ccccc2F)C3)c1 (configuration not stated), which Potency is on record?
A: inconclusive: 44.7 µM [inhibitor, partial curve]

Q: Which Potency does the source give for CCc1nc(-c2ccc(OC3CCN(C(=O)C4CC4)C3)cc2)no1 (configuration not stated) here?
A: inconclusive: 44.7 µM [inhibitor, partial curve, poor fit]

Q: Which Potency does the source give for COCc1ccc2c(c1)c(OC(C)(C)C(=O)N1CCN(CCO)CC1)nn2Cc1cccnc1 here?
A: active: 35.5 µM

Q: Which Potency does the source give for CNC(=O)N1CCC2(CC1)CC(Cc1cccc(F)c1)CCO2 (configuration not stated) here?
A: inconclusive: 50.1 µM [inhibitor, partial curve, poor fit]

Q: For CCCc1noc(-c2ccn3c(CNC(=O)c4ccccc4F)nnc3c2)n1, which “activity change, negative = cytotoxicity” value is on record?
A: inactive: -28.2%

Q: With CN(C(=O)[C@@H]1C[C@@H](c2ccc(F)cc2)N(CCOc2ccccc2)C1)c1cccnc1 as the molecule, how does the Potency read?
A: inconclusive: 56.2 µM [inhibitor, partial curve, poor fit]

Q: For Cc1nc2c(c(N3CCC(O)(CN4CCCC4)CC3)n1)CCNCC2, which “activity change, negative = cytotoxicity” value is on record?
A: inactive: 1.76%

Q: For O=C(NCCC1CCN(C(=O)Nc2cc(F)ccc2F)CC1)c1ccccn1, which “activity change, negative = cytotoxicity” value is on record?
A: inactive: -33.7%

Q: Which Potency does the source give for O=S(=O)(Cc1ccccc1)N1CC(c2nc(-c3ccncc3)no2)C1 here?
A: inconclusive: 44.7 µM [inhibitor, partial curve, poor fit]

Q: Which Potency does the source give for c1ccc(CCc2nc3nccc(-c4ccco4)n3n2)cc1 here?
A: inconclusive: 50.1 µM [inhibitor, single point]

Q: With COc1ccc(C(=O)Nc2ccc(-c3noc([C@@H]4CCCN4Cc4ccc(Cl)cc4)n3)cn2)cc1 as the molecule, how does the Potency read?
A: inconclusive: 10 µM [inhibitor, full curve, poor fit]

Q: For CCC(C)NC(=O)C1CCCN1Cc1cccc(-c2ccc(C)c(Cl)c2)c1 (configuration not stated), which Potency is on record?
A: active: 35.5 µM

Q: Which Potency does the source give for O=C(Cc1c[nH]c2ncc(-c3ccoc3)cc12)N1CCOCC1 here?
A: inconclusive: 100 µM [inhibitor, partial curve, poor fit]

Q: With CCOc1ccc(CC(=O)N2CCN(c3cc(-c4ccc(OC)cc4)[nH]n3)CC2)cc1 as the molecule, how does the Potency read?
A: inconclusive: 12.6 µM [inhibitor, single point]

Q: For COc1ccc(NC(=O)c2nc3sccn3c2-c2ccc(F)cc2)cc1, which Potency is on record?
A: inconclusive: 28.2 µM [inhibitor, partial curve]

Q: With Cc1cccc(OCC(=O)N2CCC(Cc3nc(-c4cnccn4)no3)CC2)c1 as the molecule, how does the Potency read?
A: inconclusive: 44.7 µM [inhibitor, partial curve, poor fit]

Q: With CC(C)Oc1cccc(-c2nc(C(=O)Nc3ccc(F)cc3)cs2)c1 as the molecule, how does the Potency read?
A: inconclusive: 39.8 µM [inhibitor, partial curve, poor fit]

Q: For CCOC(=O)[C@H]1C[C@]2(CCCCN(CCOC(C)=O)C2=O)N(C(=O)c2ccno2)[C@H]1c1ccccc1, which Potency is on record?
A: inconclusive: 70.8 µM [inhibitor, single point]

Q: For COc1ccc(CC(=O)N2CCC(c3n[nH]c(=O)n3-c3ccccc3)CC2)cc1, which Potency is on record?
A: inconclusive: 70.8 µM [inhibitor, single point]

Q: Which Potency does the source give for O=C(Cc1cccc(Cl)c1)N1CCC(c2nn(-c3ccc(F)cc3)c(=O)[nH]2)CC1 here?
A: inconclusive: 50.1 µM [inhibitor, partial curve, poor fit]

Q: Which “activity change, negative = cytotoxicity” value does the source give for O=C(Nc1ccccc1Cl)c1ccc2nnc(C3CCOCC3)n2c1 here?
A: inactive: -26.8%

Q: For CNC(=O)c1cc(-c2cccc(NC(C)=O)c2)cc2c1OCCN2Cc1cccnc1, which Potency is on record?
A: active: 44.7 µM

Q: For CCCCN(CCC(=O)NCCc1ccccc1)C(=O)c1cc(C)oc1C, which Potency is on record?
A: active: 35.5 µM
